Experimental data as given in PubChem BioAssay AID624296 (National Center for Advancing Translational Sciences (NCATS), 2012).
Out of some 350,000 compounds screened, about 9,900 (2.8%) were called active. This list was built around the results that the source calls inconclusive (neither active nor inactive); the mix of calls is not that of the screen. Calls come from the whole dose curve; as a rule, active = well fitted activation curve with a large enough effect; inconclusive = small, poorly fitted or top-dose-only effect; inactive = no such curve, though single readings can be large or run the other way. No potency is given beside an inconclusive call; the fits are too rough.

Experiment: A quantitative high throughput screen for small molecules that induce DNA re-replication in MCF 10a normal breast cells. Note: nearly all actives have a fitted effect of over 50% in size.
Conditions: MCF 10A DNA re-replication, Hoechst nuclear intensity, 48 h; series mostly up to 46.1 µM
Potency is the fitted concentration of half-maximal effect; tags give direction and shape of the fitted curve.

Row | Structure (SMILES) | Potency
1 | O=C(COC(=O)c1cc(-c2ccco2)nc2ccccc12)NCc1ccccc1 | inconclusive [activator, single point]
2 | CN1CCCN(C(=O)c2cccc3ccccc23)CC1 | inconclusive [activator, partial curve]
3 | COc1ccccc1C(=O)N/N=C(\C)c1ccc(NC(=O)C2CC2)cc1 | inconclusive [activator, partial curve, poor fit]
4 | C=CCS(=O)(=O)c1nc2ccccc2s1 | active: 7.31 µM
5 | O=C(NCc1cccc(Cl)c1)C1CCN(S(=O)(=O)c2ccc(F)cc2)CC1 | inactive
6 | Cc1cc(=O)n(C(C)(C)C)c(=O)n1Cc1ccccc1 | inactive
7 | COc1ccc(-c2ccc(SCC(=O)N3CCOCC3)nn2)cc1OC | inconclusive [activator, partial curve, poor fit]
8 | O=C(CCS(=O)(=O)Cc1ccccc1)Nc1nnc(C(F)(F)F)s1 | inconclusive [activator, single point]
9 | O=C1C=CC(=O)N1c1ccccc1N1C(=O)C=CC1=O | inconclusive [activator, single point]
10 | CCCn1c(-c2cc(OC)c(OC)c(OC)c2)nc2nc3ccccc3nc21 | inactive
11 | Cc1ccc(C)n1-c1ccc(C(=O)N2CCOCC2)cc1 | inactive
12 | O=C1CCCN1CCCNC(=S)Nc1ccccc1 | inactive
13 | CC(=O)Nc1ccc(S(=O)(=O)Oc2cccc(N3C(=O)C4CC=CCC4C3=O)c2)cc1 (stereo not drawn) | inactive
14 | COc1ccc2oc(-c3ccco3)cc(=O)c2c1 | inactive
15 | CC1(C)Oc2ccc3ccc(=O)oc3c2/C(=C/NNC(N)=S)C1=O | inconclusive [activator, single point]
16 | CCc1cc(=O)[nH]c(SCC(=O)N2CCC(Cc3ccccc3)CC2)n1 | inconclusive [activator, single point]
17 | COc1ccc2cc3cc(C(=O)Nc4ccc5c(c4)OCCO5)oc3nc2c1 | inconclusive [activator, single point]
18 | COc1ccc2oc(C(=O)c3ccccc3)c(N)c2c1 | active: 14.6 µM
19 | COc1cccc(N2CCN(Cc3nc(N)nc(Nc4ccccc4)n3)CC2)c1 | inactive
20 | CC[n+]1c(/C=C/N(C)c2ccccc2)n(-c2ccccc2)c2ccc(-c3nc4ccccc4s3)cc21 | inconclusive [activator, single point]
21 | CCCn1c(N)c(C(=O)CSc2nnc3n2CCCCC3)c(=O)[nH]c1=O | inactive
22 | Cc1ccc(S(=O)(=O)N2CCCCC2)cc1C(=O)N1CCN(c2ccccn2)CC1 | inactive
23 | N#Cc1cc2c(=O)n3ccccc3nc2n(-c2ccccc2Cl)c1=O | active: 4.11 µM
24 | CCCc1cc(CNC(=O)C2CCC(=O)N(Cc3ccccc3F)C2)on1 (stereo not drawn) | inactive

Row | Structure (SMILES) | Potency
25 | O=C(N/N=C/c1ccc2c(c1)OCO2)c1ccc2ccccc2n1 | inconclusive [activator, single point]
26 | CC(=O)c1ccc(N2CCN(C(=O)C3CCN(S(=O)(=O)Cc4ccccc4)CC3)CC2)cc1 | inactive
27 | Cc1ccc(CNC(=O)C2CN(S(C)(=O)=O)c3cc(Cl)ccc3O2)cc1 (stereo not drawn) | inactive
28 | COc1ccc(CNCCCNCc2ccc(OC)c(OC)c2)cc1OC | inconclusive [activator, single point]
29 | O=C(c1ccc([N+](=O)[O-])c(CS(=O)(=O)c2ccc(Cl)cc2)c1)N1CCCC1 | inactive
30 | COc1ccccc1CN(C)C(=O)c1ccc(COc2ccccc2)cc1 | inconclusive [activator, single point]
31 | Cc1ccc(-n2nnnc2SCC(=O)Nc2ccccc2N2CCCCC2)cc1C | inconclusive [activator, full curve]
32 | COC(=O)c1cccc2c1-c1ccccc1/C2=N/O | inconclusive [activator, single point]
33 | Oc1ccc(/C=N/NC2=NCCCCC2)cc1 | inconclusive [activator, single point]
34 | CCOc1ccccc1NC(=O)Cn1nnc(C(=O)Nc2ccccc2Cl)c1N | inconclusive [activator, single point]
35 | Cc1nn(Cc2c(F)c(F)c(F)c(F)c2F)c(C)c1NC(=O)c1nn(C)c(C)c1Br | inactive
36 | CC(=O)Nc1cccc(NC(=O)CCc2ccccc2)c1 | inconclusive [activator, single point]
37 | CCS(=O)(=O)c1cc([N+](=O)[O-])c(Sc2ccccc2N)s1 | inactive
38 | CN(C)C(=O)c1cn(-c2ccccc2)nc1-c1cccc([N+](=O)[O-])c1 | inactive
39 | COC(=O)C1=CN(Cc2ccc(OC)c(OC)c2)C=C(C(=O)OC)C1c1ccc(F)cc1 | active: 18.4 µM
40 | CCCc1nc2ccc(NC(=O)c3cccs3)cc2c(=O)n1Cc1ccccc1Cl | inconclusive [activator, partial curve]
41 | COc1cc(/C=C/C(=O)N2C(=O)c3cccc(N)c3C2=O)cc(OC)c1OC | active: 9.2 µM
42 | Cc1nn(CCC(=O)NNC(=S)Nc2ccc([N+](=O)[O-])cc2)c(C)c1[N+](=O)[O-] | inactive
43 | COC(=O)C1=C[C@@H](C(=O)OC)[C@@H]2C3=C(C(=O)C2(C)C)[C@H](C)n2c(=O)n(-c4ccccc4)c(=O)n2[C@@H]3C1 | inconclusive [activator, partial curve, poor fit]
44 | CCc1cccc(CC)c1NC(=O)CNCc1cccs1 | inactive
45 | C=CCOC(=O)C1=C[C@H](c2csc3ccccc23)C[C@H](OCc2ccc(CO)cc2)O1 | inconclusive [activator, single point]
46 | CC(=O)Nc1ccc(NC(=O)CSc2nnnn2-c2ccccc2F)cc1 | inconclusive [activator, partial curve, poor fit]
47 | CN1C(=O)/C(=C/c2ccc(OCc3ccc(F)cc3)cc2)NC1=S | inconclusive [activator, single point]
48 | Cc1nc2c(C(=O)NCCc3ccccc3Cl)c[nH]n2c(=O)c1Cl | inconclusive [activator, single point]
